# Assay results taken from PubChem BioAssay AID686971 (National Center for Advancing Translational Sciences (NCATS), 2013).
# Out of some 360,000 compounds screened, about 7,500 (2.1%) were called active. Inconclusive results, whose numbers are uncertain, are shown with a selection of clear calls. The call rests on the fitted dose curve; in most records, active means well fitted cell-killing curve with a large enough effect; inconclusive means small, poorly fitted or top-dose-only effect, or effect the other way, or another doubt; inactive means no such curve, though single readings can be large or run the other way. Potencies of inconclusive entries are left out as doubtful fits.
# Test: qHTS for induction of synthetic lethality in tumor cells producing 2HG: qHTS for the HT-1080-IDH1KD cell line;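 on activity, negative = toxicity: 0% = DMSO wells and -100% = cell-free medium wells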
# Conditions: HT-1080 IDH1 knockdown viability, ATP luminescence, 48 h; activity, negative = toxicity: at 46.1 µM (top of the series) unless noted
# Procedure, shortened: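 In this qHTS, HT-1080 cells depleted of IDH1 are exposed for 48 h at 37 °C to compound titrations. Toxicity is scored from CellTiter-Glo luminescence, with DMSO as full viability and medium alone as none.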
# Potency means the concentration at half of the fitted maximal effect; tags describe the fitted curve by direction and shape.
SMILES,Potency,"activity, negative = toxicity"
O=C(CCn1cnnn1)Nc1ccc(Cl)c(Cl)c1,"inconclusive [cytotoxic, single point]",–
Fc1ccc(COc2ccc(Br)cc2CNCc2ccncc2)cc1,"inconclusive [cytotoxic, partial curve]",–
O=C(Cc1ccccc1)Nc1cccc(-c2nnc(-c3ccco3)o2)c1,inactive,–
Cc1c(C(=O)Oc2cccc3cccnc23)oc2ccccc12,active: 23.1 µM,–
O=C(OCc1c(F)cccc1Cl)c1cc([N+](=O)[O-])ccc1N1CCOCC1,inactive,–
CC(=O)N(C)c1ccc(NC(=O)CCN2C(=O)c3ccccc3C2=O)cc1,inactive,–
COc1cc(/C=N/NC(=S)N/N=C/c2cc(OC)c(OC)c(OC)c2)cc(OC)c1OC,inactive,–
CC(=O)C(=Cc1cc(C)n(-c2ccccc2)c1C)C(C)=O,inactive,–
Nc1[nH]c(C(=O)c2ccccc2)c(-c2ccc(Cl)c(F)c2)c1C(=O)NCCc1c[nH]c2ccccc12,"inconclusive [cytotoxic, single point]",–
CCCCN(C)C(=O)c1ccc(Nc2nc(C(N)Cc3ccc(C(F)(F)F)cc3)cs2)nc1 (stereo unspecified),active: 16.4 µM,–
CC(=O)c1ccc(NC2=C(N3CCOCC3)C(=O)c3ccccc3C2=O)cc1,"inconclusive [cytotoxic, single point]",–
Cc1cnc(C(=O)NNC(=O)c2ccc(Br)cc2)cn1,active: 20.6 µM,–
Cn1c(N)c(S(=O)(=O)c2ccc(Br)cc2)c2nc3ccccc3nc21,"inconclusive [cytotoxic, single point]",–
OCCN(Cc1ccccc1)c1ncnc2sccc12,inactive,–
O=C(CN1C(=O)NC2(CCCC2)C1=O)OCc1ccc(Cl)c(Cl)c1,inactive,–
COc1ccc(N2CCN(C(=O)c3cn(C)c(=O)c4c3c3ccccc3n4C)CC2)cc1,"inconclusive [cytotoxic, single point]",–
CCN(CC)C(=O)[C@H]1C[C@H](CC(=O)NC/C=C(\C)CCC=C(C)C)C(=O)N2CCc3c([nH]c4cc(-c5ccco5)ccc34)[C@]12C,"inconclusive [cytotoxic, single point]",–
Cc1ccc(/C=N/Nc2ccnc3cc(Cl)ccc23)c(C)c1,"inconclusive [cytotoxic, single point]",–
Oc1ccc(CCNc2c3ccccc3nc3ccccc23)cc1O,"inconclusive [cytotoxic, single point]",–
COc1ccc(S(=O)(=O)N2c3ccccc3OCC2c2ccccc2)cc1 (stereo unspecified),"inconclusive [cytotoxic, single point]",–
COc1cc(NC(=O)C2CCCCC2)c(OC)cc1NC(=O)CN1CCCCC1,inactive,–
COCCNC(=S)Nc1cccc2cnccc12,inactive,–
O=C(NCC(=O)N1CCCCCC1)c1ccc(Br)cc1,inactive,–
COc1ccc2c(c1)C(C)=CC(C)(C)N2C(=O)CNCc1ccc2c(c1)OCO2,active: 8.91 µM,–
COc1ccccc1N1CCN(c2nc(C)nc3c2oc2ccccc23)CC1,active: 1.26 µM,–
CNc1cnc(-c2ccsc2)cn1,inactive,–

SMILES,Potency,"activity, negative = toxicity"
Cc1ccc(OCC(O)CNCc2ccc(F)cc2)cc1 (stereo unspecified),–,inconclusive: -31% [cytotoxic]
Cc1cc(CN2CCOCC2)c(O)c(C2(C)CCCCC2)c1,"inconclusive [cytotoxic, partial curve]",–
O=C(CCCOC(=O)c1cccnc1Cl)c1ccc(Br)cc1,inactive,–
O=c1cc(-c2ccc(F)cc2)oc2ccccc12,inactive,–
Cc1nc(N)nc(N)c1-c1ccc([N+](=O)[O-])cc1,active: 10.3 µM,–
Cc1ccc(OCCn2cc(/C=N/NC(=O)c3ccncc3)c3ccccc32)cc1,"inconclusive [cytotoxic, single point]",–
O=C(CCl)NC1CCCc2ccccc21 (stereo unspecified),"inconclusive [cytotoxic, single point]",–
Cc1ccc(NC(=S)N/N=C/c2c(C)nn(-c3ccccc3)c2N2CCCC2)cc1,inactive,–
CCOC(=O)N1CCN(C(=O)COC(=O)c2cc(C)ccc2C)CC1,inactive,–
Cc1cccc(NC(=S)NC(NC(=O)c2ccco2)C(Cl)(Cl)Cl)c1 (stereo unspecified),"inconclusive [cytotoxic, single point]",–
CCCn1c(=S)[nH]c2cc(OC)c(OC)cc2c1=O,"inconclusive [cytotoxic, single point]",–
O=C(Nc1ccccc1)C1CCN(C(=O)c2ccccc2)CC1,inactive,–
Cc1ccc(Nc2cc(C)nn2-c2nc(C)cc(=O)[nH]2)cc1,"inconclusive [cytotoxic, full curve]",–
O=Cc1cc2ccccc2nc1SCc1ccc(Cl)c(Cl)c1,active: 5.8 µM,–
O=C(C(=O)N(C1CCCCC1)C1CCCCC1)c1ccccc1,"inconclusive [cytotoxic, single point]",–
CCOC(=O)CCS(=O)(=O)c1nc(-c2ccccc2)cc(C(F)(F)F)n1,active: 5.17 µM,–
Cc1onc(-c2ccccc2)c1C(=O)Nc1nc2c(s1)C(=O)CC(C)(C)C2,inactive,–
COc1ccc(S(=O)(=O)N(C)C[C@H]2Oc3c(NC(=O)Nc4ccccc4)cccc3C(=O)N([C@H](C)CO)C[C@@H]2C)cc1,inactive,–
C/C=C/c1ccc(OCCCNC2CCCC2)c(OC)c1,"inconclusive [cytotoxic, single point]",–
COc1cccc(C(=O)c2cc3ccc(O)cc3oc2=O)c1,"inconclusive [cytotoxic, single point]",–
COc1ccc2sc(-c3ccc(SC)cc3)c(C#CC(C)(C)O)c2c1,"inconclusive [cytotoxic, partial curve]",–
COc1cc2[nH]c(C(=O)N3CCc4ccccc4C3)cc2c(OC)c1OC,"inconclusive [cytotoxic, single point]",–
COCCCN=C(c1ccco1)n1c(=S)nc(-c2ccco2)n(CCCOC)c1=S,active: 7.94 µM,–
Cc1ccc(-c2nc(Nc3ccc(O)cc3)c3ccccc3n2)cc1,active: 20.6 µM,–
O=C(O)c1cc(Cl)c(Cl)cc1C(=O)N1CCCC1,"inconclusive [rising, single point]",–
